# Assay results reported in article PMC4336329 (PLoS ONE, 2015).
# In all, about 310,000 compounds went through this assay and about 2,200 (0.71%) showed an effect of 50% or more. Effects have a minus sign here. This is one part of the list.
# Biological target: human ether-à-go-go-related gene (hERG) potassium channel (human, UniProt Q12809)
# Assay: primary screen, population patch clamp on CHO cells stably expressing hERG
# Chain of human ether-à-go-go-related gene (hERG) potassium channel (Q12809 whole entry, looked up): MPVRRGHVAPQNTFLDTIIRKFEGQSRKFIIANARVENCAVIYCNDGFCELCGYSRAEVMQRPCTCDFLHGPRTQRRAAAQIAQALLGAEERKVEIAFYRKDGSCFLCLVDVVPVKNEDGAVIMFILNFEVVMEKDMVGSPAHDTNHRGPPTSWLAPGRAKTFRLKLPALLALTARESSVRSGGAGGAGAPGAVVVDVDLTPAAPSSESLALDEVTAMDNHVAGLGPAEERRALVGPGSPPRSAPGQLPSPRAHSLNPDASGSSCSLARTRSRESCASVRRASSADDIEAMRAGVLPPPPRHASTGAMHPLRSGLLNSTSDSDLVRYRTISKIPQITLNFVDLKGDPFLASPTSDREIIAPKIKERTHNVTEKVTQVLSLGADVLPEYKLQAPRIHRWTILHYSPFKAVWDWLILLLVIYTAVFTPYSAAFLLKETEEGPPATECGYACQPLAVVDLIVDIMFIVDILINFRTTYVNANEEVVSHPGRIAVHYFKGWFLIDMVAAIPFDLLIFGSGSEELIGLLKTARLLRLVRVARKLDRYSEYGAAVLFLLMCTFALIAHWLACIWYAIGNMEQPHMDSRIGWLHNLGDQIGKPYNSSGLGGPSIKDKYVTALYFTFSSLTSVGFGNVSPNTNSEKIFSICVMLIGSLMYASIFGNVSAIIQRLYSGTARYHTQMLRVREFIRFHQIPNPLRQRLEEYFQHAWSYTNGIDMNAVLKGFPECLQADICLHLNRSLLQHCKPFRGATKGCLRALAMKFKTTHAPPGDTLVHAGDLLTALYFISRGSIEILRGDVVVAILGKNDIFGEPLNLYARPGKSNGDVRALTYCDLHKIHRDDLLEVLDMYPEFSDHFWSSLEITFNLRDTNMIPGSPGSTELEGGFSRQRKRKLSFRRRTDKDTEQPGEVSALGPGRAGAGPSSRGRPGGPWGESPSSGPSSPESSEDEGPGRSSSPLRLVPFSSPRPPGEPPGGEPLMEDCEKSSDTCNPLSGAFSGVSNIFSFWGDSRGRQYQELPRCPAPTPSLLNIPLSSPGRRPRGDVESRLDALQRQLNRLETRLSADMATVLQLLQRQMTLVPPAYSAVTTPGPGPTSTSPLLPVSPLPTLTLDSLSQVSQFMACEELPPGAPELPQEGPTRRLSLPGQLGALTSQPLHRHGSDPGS
row,SMILES,"hERG current change (%, negative = inhibition) at 1uM"
1,NC(=O)C1CCN(C(=S)c2cccs2)CC1,10.8%
2,O=C(O)C1C2C=CC(C2)C1C(=O)N1CCN(CCO)CC1 (stereo not drawn),3.31%
3,NS(=O)(=O)c1ccc(Nc2nc(-c3ccc(F)cc3)cs2)cc1,11.4%
4,O=C(c1cccc(NS(=O)(=O)c2cccc(C(F)(F)F)c2)c1)N1CCOCC1,15.2%
5,CC(C)C12CN3CC(C(C)C)(CN(C1)C3c1ccc([N+](=O)[O-])o1)C2=O (stereo not drawn),7.51%
6,Cc1[nH]c(=O)[nH]c(=O)c1S(=O)(=O)NCCOC12CC3CC(CC(C3)C1)C2,9.88%
7,CC(=O)N1CCc2cc(S(=O)(=O)NCCC(=O)N3CCN(c4ccccn4)CC3)ccc21,-16.8%
8,Cc1cc(=O)[nH]c(N/N=C/c2cccc(Br)c2)n1,7.67%
9,CCN(CC)C(=O)N1CCc2ccccc21,-1.23%
10,CCCCCOC(=O)C1=C(C)NC(=O)NC1c1ccccc1 (stereo not drawn),10.3%
11,CCCCc1nnc(NC(=O)CCc2ccccc2)s1,16.2%
12,C=CCn1c(CNS(=O)(=O)c2ccc(Br)cc2)n[nH]c1=S,8.31%
13,CCOc1ccccc1NC(=O)C(C)SCc1ccccc1 (stereo not drawn),11.7%
14,O=C(CNC(=O)c1ccc([N+](=O)[O-])cc1)N/N=C\c1ccc(OC(=O)c2ccccc2)cc1,13.6%
15,CCOC(=O)CN1C(=O)S/C(=C/c2ccc(OCc3ccc(C(=O)O)cc3)cc2)C1=O,13.9%
16,COC(=O)Nc1sc2nc(C)cc(C)c2c1-n1cccc1,-4.13%
17,COc1cc(OC)cc(C(=O)NC(C(=O)NNC(=O)c2cc(Cl)ccc2OC)C(C)C)c1 (stereo not drawn),17.7%
18,CCOC(=O)C1=C(O)/C(=C\c2cc(C)n(-c3ccc(F)cc3)c2C)N=C1C,11.2%
19,O=C1OCC2=C1C(c1ccc(Cl)cc1)CC(=O)N2c1ccc(F)cc1 (stereo not drawn),-10.2%
20,COC(=O)C(Cc1ccccc1)NC(=O)CSc1nc(N)cc(=O)[nH]1 (stereo not drawn),16.3%
21,Nc1nc(NCCOCCO)nc(NCc2ccccc2)c1[N+](=O)[O-],13.5%
22,COCCOc1ccc(C(F)(F)F)cc1NC(=O)c1ccccc1,-2.95%
23,CC(C)C(C)NC(=O)COC(=O)C1CCN(S(=O)(=O)c2ccc3c(c2)OCCO3)CC1 (stereo not drawn),0.23%

row,SMILES,"hERG current change (%, negative = inhibition) at 1uM"
1,C=CCn1c(Cc2c[nH]c3ccccc23)nnc1SCC(=O)NCc1ccccc1,1.79%
2,COCCN1C(=O)N[C@@H](c2ccccc2)[C@H](C(=O)OC)[C@H]1C,7.56%
3,CC(C)(C)NC(=O)NC12CC3CC(CC(C3)C1)C2,20.6%
4,CN1CCC(=NNC(=O)C(=O)Nc2ccc(F)cc2)CC1,15.5%
5,Cc1cc(C)n(S(=O)(=O)c2ccc(C(C)(C)C)cc2)n1,7.18%
6,Cc1ccc(NCC(=O)N/N=C/c2ccc(OC(=O)c3ccco3)cc2)cc1,5.32%
7,c1csc(C2=Nn3c(nnc3-c3ccncc3)SC2)c1,0.765%
8,COCCSc1nnc(NC(=O)CSc2ccccc2)s1,12.6%
9,Cc1ccc(CCNC(=O)C2CCN(S(=O)(=O)c3ccc4nc5c(c(C(=O)O)c4c3)CCCC5)CC2)cc1,21.5%
10,COc1cccc(OC)c1OCC(O)CN1CCN(c2ccc(F)cc2)CC1.Cl (stereo not drawn),-34.3%
11,Cc1cccc(Oc2ncc(-c3ccc(Cl)cc3)cn2)c1C,11.2%
12,COc1ccc(N2CCN(CCNS(=O)(=O)c3ccc(C)cc3)CC2)cc1,7.86%
13,CC(=O)NCCc1nc2ccccc2[nH]1,5.63%
14,COc1ccc(CC(=O)N(C)Cc2ccc(Cl)cc2)cc1S(=O)(=O)N1CCOCC1,-4.04%
15,CCCCc1cc(=O)oc2cc(C)cc(OC(C)C(=O)NCc3ccccn3)c12 (stereo not drawn),9.09%
16,O=C(NCCO)C(=O)Nc1cc2c3c(c1)CCN3C(=O)CC2,21.2%
17,COC(=O)c1sccc1NC(=O)CSCCc1ccncc1,9.96%
18,CC1(C)CC(=O)C=C(Nc2ccc(F)c(Cl)c2)C1,1.12%
19,O=C(Nc1nc2ccccc2s1)C1CCN(C(=O)c2ccco2)CC1,2.15%
20,O=C(Cc1ccc(F)cc1)Nc1cccc(-c2cn3c(n2)SCC3)c1,2.33%
21,COc1ccc(CNC(=O)C2(CC3CC(c4ccccc4)=NO3)CCN(C(=O)C3CCCC3)CC2)cc1 (stereo not drawn),-67.1%
22,CCN(C1CCCCC1)S(=O)(=O)c1ccc(C(=O)O)cc1,14.6%
23,Cc1ccc(S(=O)(=O)NC(c2ccccc2)C(C)C(=O)n2nc(C)cc2C)cc1 (stereo not drawn),1.95%

row,SMILES,"hERG current change (%, negative = inhibition) at 1uM"
1,O=C(CCNC(=O)c1ccc([N+](=O)[O-])cc1)Nc1cccc(S(=O)(=O)N2CCCCCC2)c1,-46.3%
2,CC(Oc1ccc2c3c(c(=O)oc2c1)CCC3)C(=O)NCc1cccnc1 (stereo not drawn),11.1%
3,COc1cc(-c2nnn(CC(=O)N3CCOCC3)n2)cc(OC)c1OC,8.77%
4,Cc1ccsc1/C=N/NC(=O)c1nnn(-c2nonc2N)c1CSc1ccccc1,12.9%
5,Cc1cc2nnc(SC(C)C#N)n2c2ccccc12 (stereo not drawn),6.69%
6,Cc1cc(NC(=O)Nc2ccc(Cl)cc2)n(-c2ccccc2)n1,9.23%
7,N#Cc1c(NC(=O)c2ccccc2)sc2c1CCCCC2,12.1%
8,COc1ccc(C2CC(=O)C=C(NC3CCCC3)C2)cc1 (stereo not drawn),7.72%
9,CN(CC(=O)Nc1ccccc1Br)Cc1nc2ccccc2c(=O)[nH]1,-9.06%
10,CC(C)OC(=O)CC(=O)CSc1nc2c(c(-c3cccs3)c1C#N)CCC2,9.64%
11,COC(=O)c1ccc(CN2C(=O)NC(Cc3c[nH]c4ccccc34)C2=O)cc1 (stereo not drawn),10.9%
12,COc1ccc(NC(=O)CCNS(=O)(=O)c2cccc3nonc23)cc1Cl,26.5%
13,COC(=O)CCC(=O)Nc1ccc(C)cc1OC(=O)CCC(=O)OC,11.4%
14,CCNc1nc(Oc2ccccc2)nc(OC(C)C(=O)OCC)n1 (stereo not drawn),-1.68%
15,Cc1ccc(S(=O)(=O)n2nc(OC(=O)c3cccc(F)c3)cc2N)cc1,15.5%
16,CC1(C)CC(=O)c2cc(OCC(=O)NCC3CCCO3)ccc2O1 (stereo not drawn),14%
17,COc1cc2nc(/C=C/c3cc(OC)c(OC)c(OC)c3)sc2cc1SC,9.21%
18,COc1cccc(C(=O)N(Cc2ccco2)Cc2cc3cccc(C)c3[nH]c2=O)c1,-6.66%
19,CNc1nc(-c2ccc3c(c2)CCN3C(=O)c2ccccc2F)c(C)s1,7.35%
20,CCOC(=O)C1CCCCN1Cc1ccccc1C(F)(F)F (stereo not drawn),6.1%
21,Cc1nnc(SCC(=O)Nc2ccc(F)cc2F)n(N)c1=O,-2.79%
22,O=C(COC(=O)c1ccc(S(=O)(=O)N2CCOCC2)cc1)NC1CCCCCCC1,9.32%
23,COC(=O)C1=C(c2ccc(OC)c(OC)c2)C[C@@H]2CC[C@H]1N2C(=O)NC1Cc2ccccc2C1,9.6%

row,SMILES,"hERG current change (%, negative = inhibition) at 1uM"
1,CC1=CCC2C(=O)N(c3ccc(C(=O)N4CCCCCC4)cc3)C(=O)C2C1 (stereo not drawn),13.3%
2,O=c1[nH]cnc2c1c(-c1ccccc1)cn2-c1ccc(Br)cc1,10.4%
3,COc1cc(/C=N/NC(=O)C(=O)NCc2ccco2)cc(Cl)c1O,6.32%
4,CC(C)CCNC1c2ccccc2C(=O)N1Cc1ccccc1.Cl (stereo not drawn),16.7%
5,COC(=O)Nc1ccc(NC(C)=O)cc1,21.6%
6,O=C(c1ccc2c(c1)OCCCO2)N1CCCCC1,15.7%
7,COC(=O)[C@H](Cc1ccccc1)NC(=O)NCCc1ccc(OC)cc1,7.6%
8,COc1ccc(/C=C/C(=O)NC(=S)Nc2ccc(S(=O)(=O)Nc3cc(C)on3)cc2)cc1,-6.85%
9,Cc1cc2c(cc(C(=O)N3CCC(C(=O)N4CCCC4)CC3)n2Cc2c(F)cccc2Cl)o1,-1.17%
10,O=C(N/N=C/c1ccccn1)c1cc(-c2ccc(Br)s2)[nH]n1,12.2%
11,N#Cc1ccc(Cn2cc(C=O)c3ccccc32)cc1,-8.65%
12,CNC(=S)N1CCN(C(c2ccccc2)c2ccccc2)CC1,9.53%
13,Cc1ccc(CNC(=O)c2ccc(CN3CCOCC3)cc2)cc1,10.4%
14,COc1ccc2c(c1)c(C(=O)CNc1nc(C)cs1)c(C)n2C.I,4.62%
15,Cc1c(C(=O)N2CCCCCC2)oc2ccccc12,2.41%
16,CC1CCCC(C)N1/N=C/c1c[nH]c2ccc(Br)cc12 (stereo not drawn),12.1%
17,Cc1ccc(C(=O)NNC(=O)c2ccccc2)cc1S(=O)(=O)N1CCCCC1,0.738%
18,COc1cccc(CNC(=O)C2CCN(S(=O)(=O)c3cccs3)CC2)c1,-8.7%
19,O=C(NCc1csc(-c2cccs2)n1)Nc1ccc(C(F)(F)F)cc1,10.7%
20,C=CCNC(=O)c1c(Cl)cnn1-c1ccc(C)cc1,16.3%
21,CSc1nc(N)c2c3c(sc2n1)COC(C(C)C)C3 (stereo not drawn),-3.55%
